# Test results reported in PubChem BioAssay AID1466 (National Center for Advancing Translational Sciences (NCATS), 2008).
# Hit rate of the full screen: of about 200,000 compounds, about 10 (0.005%) were called active. The inconclusive results got no clear call from the source; some entries with a clear call stand among them for comparison. Calls come from the whole dose curve; as a rule, active = well fitted inhibition curve with a large enough effect; inconclusive = small, poorly fitted or top-dose-only effect, or effect the other way, or another doubt; inactive = no such curve, though single readings can be large or run the other way. No potency is given beside an inconclusive call; the fits are too rough.
# Biological target: Lysosomal alpha-glucosidase (Homo sapiens) (UniProt P10253)
# Experiment: qHTS Assay for Inhibitors of Human alpha-Glucosidase as a Potential Chaperone Treatment of Pompe Disease;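 for activity change, negative = inhibition: plate controls were uninhibited enzyme wells for no effect and no-enzyme background for full effect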
# Conditions: purified human GAA, 4-MU-alpha-glucoside fluorescence; activity change, negative = inhibition: at 76.9 µM (top of the series) unless noted
# Procedure, shortened: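 Enzyme (4 nM final) mixed with compound (up to 77 uM), then 4-MU-alpha-D-pyranoside (400 uM final) added; 20 min at room temperature, pH 5.0. Reaction stopped at pH 10, fluorescence read, AC50 derived by Hill fit.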
# Potency is the fitted concentration of half-maximal effect; tags give direction and shape of the fitted curve.
SMILES,"activity change, negative = inhibition",Potency
COc1ccc(C(=O)CSc2nnc(CNC(=O)c3ccco3)n2C)cc1,inconclusive: 14.3% [activator],–
CC1(C)Cc2nc(N3CCCC3)c(C#N)cc2CO1,–,"inconclusive [activator, partial curve]"
C=CCNc1oc(-c2ccc(OCC)cc2)nc1C#N,–,"inconclusive [inhibitor, partial curve]"
Cc1csc(N(C(=O)c2cccc(S(=O)(=O)N(C)C)c2)c2ccccc2)n1,–,"inconclusive [inhibitor, single point]"
O=[N+]([O-])c1cc(S(=O)(=O)c2ccc(N3CCCCC3)c([N+](=O)[O-])c2)ccc1N1CCCCC1,–,"inconclusive [inhibitor, full curve, poor fit]"
O=S(=O)(Nc1ccc(Oc2ncccn2)c(Cl)c1)c1ccc(Cl)cc1,–,"inconclusive [inhibitor, partial curve]"
C/C(=C\C=C\c1ccccc1)C(=O)c1c(C)cc(C)[nH]c1=O,–,"inconclusive [inhibitor, full curve]"
C/C(=N/NC(=O)c1ccncc1)c1cc2ccc(O)cc2oc1=O,–,"inconclusive [activator, partial curve]"
CCOc1ccc(N(CC(=O)NCc2cccc(OC)c2)S(=O)(=O)c2c(C)noc2C)cc1,–,"inconclusive [inhibitor, full curve, poor fit]"
CNC(=S)NNC(=O)Cc1ccc(OC)c(OC)c1,–,"inconclusive [inhibitor, single point]"
CCOC(=O)c1ccc(NC(=O)NCc2ccncc2)cc1,–,"inconclusive [inhibitor, single point]"
COCCCn1c2nc3ccccc3nc2c2c(=O)n(Cc3ccc(Cl)cc3)c(C)nc21,inconclusive: 39.8% [activator],–
c1ccc2c(c1)[nH]c1c(N3CCN(C4CCCCC4)CC3)ncnc12,inconclusive: -17.1% [inhibitor],–
Nc1ccccc1SCC(=O)Nc1nccs1,–,"inconclusive [inhibitor, full curve]"
CC(C)(C)n1nc(C2CC2)cc1NC(=O)Nc1ccc(Cl)cc1,–,"inconclusive [inhibitor, partial curve, poor fit]"
COc1ccc(CSCC(=O)NCCC(C)C)cc1,–,"inconclusive [inhibitor, single point]"
COc1ccc(OC)c(-n2c(N)c(C(=O)NCC3CCCO3)c3nc4ccccc4nc32)c1 (stereo not drawn),–,inactive
Cc1ccc(Cc2cnc(NC(=O)c3ccco3)s2)cc1,–,"inconclusive [inhibitor, partial curve, poor fit]"
COc1ccc(OC)c(NC(=O)c2[nH]c(C)c(C(C)=O)c2C)c1,–,"inconclusive [inhibitor, partial curve]"
CC(C)(C)NC(=S)Nc1ccc(Br)cc1,–,inactive
COCCCNCCCCOc1ccccc1-c1ccccc1,–,"inconclusive [inhibitor, single point]"

SMILES,"activity change, negative = inhibition",Potency
Cc1ccc(NCc2nnc(SCC(=O)O)n2Cc2ccccc2)cc1Cl,inconclusive: 17.3% [activator],–
Cc1ccc(NC(=S)NC(=O)c2ccc(-c3ccccc3)cc2)c(C)c1,–,"inconclusive [inhibitor, partial curve, poor fit]"
CCC(C)(C)C1CCC(=NNS(=O)(=O)c2ccc(C)c([N+](=O)[O-])c2)CC1 (stereo not drawn),–,"inconclusive [inhibitor, single point]"
Cc1sc(NC(=O)c2cc3ccccc3oc2=O)c(C(=O)OC(C)C)c1-c1ccccc1,–,"inconclusive [inhibitor, single point]"
COc1ccc(/C=N/NC(=O)C(C)n2cnc3ccccc3c2=O)cc1OC (stereo not drawn),–,"inconclusive [inhibitor, single point]"
O=C(Cc1ncon1)Nc1ccc(F)c(F)c1F,–,"inconclusive [inhibitor, full curve, poor fit]"
CC(=O)Nc1ccc(S(=O)(=O)NNC2=NS(=O)(=O)c3ccccc32)cc1,–,"inconclusive [inhibitor, partial curve]"
N=c1c2c(-c3ccccc3)c(-c3ccccc3)n(Cc3ccccc3)c2ncn1CCCn1ccnc1,–,"inconclusive [inhibitor, single point]"
N/C(=N\OC(=O)Nc1ccc(Cl)cc1)c1ncc(C(F)(F)F)cc1Cl,–,"inconclusive [inhibitor, single point]"
Cc1cc(NC(=O)CSc2nc3ccccc3c(=O)n2CCCC(=O)NCc2ccco2)n[nH]1,–,"inconclusive [activator, partial curve, poor fit]"
CCCCn1c(O)c(N=NC(=O)c2ccccc2NS(=O)(=O)c2cccs2)c2ccccc21,–,"inconclusive [inhibitor, full curve]"
CCOC(=O)c1c(NC(=O)c2ccco2)sc2c1CCCC2,–,"inconclusive [activator, single point]"
O=S(=O)(c1ccc(OCC(O)CNC23CC4CC(CC(C4)C2)C3)c(Cl)c1)N1CCOCC1 (stereo not drawn),–,"inconclusive [inhibitor, single point]"
NC(=O)c1cc[n+](CC2=C(C(=O)O)N3C(=O)[C@@H](NC(=O)C(c4ccccc4)S(=O)(=O)[O-])[C@H]3SC2)cc1 (stereo partly drawn),–,"inconclusive [inhibitor, single point]"
CCC(=O)Nc1c(C)c(CC)nc2ccccc12,–,"inconclusive [inhibitor, single point]"
COc1ccccc1CNC(=O)c1n[nH]c2ccccc12,–,"inconclusive [inhibitor, partial curve]"
O=C(COc1ccc2c(c1)C(=O)CC1(CCCCC1)O2)NCc1ccccc1,–,"inconclusive [activator, single point]"
Cc1ccc(-n2ncc3c(SCC(=O)NNC(=O)c4ccco4)ncnc32)cc1,–,"inconclusive [activator, full curve, poor fit]"
CN(C)C(=O)CSc1nnc([C@H](Cc2c[nH]c3ccccc23)NC(=O)OC(C)(C)C)o1,–,"inconclusive [inhibitor, full curve, poor fit]"
Cc1nc(NC2=NCN(CCc3ccccc3)CN2)nc2ccccc12,inconclusive: 15.1% [activator],–
C=CCn1c(-c2ccc(Cl)cc2)ccc(C#N)c1=O,–,"inconclusive [inhibitor, single point]"

SMILES,"activity change, negative = inhibition",Potency
Cc1ccc2nc(-c3ccncc3)c(NC3CCCC3)n2c1,–,inactive
Nc1nnc(SCC(=O)Nc2cc(C(F)(F)F)ccc2N2CCOCC2)s1,–,"inconclusive [inhibitor, single point]"
CCCOc1ccccc1C1C(C(=O)OC)=CN(C(C)C)C=C1C(=O)OC,–,"inconclusive [activator, partial curve]"
Cc1ccc(NC(=O)CN2CCC(C(=O)c3ccc4c(c3)OCCO4)CC2)cc1,–,"inconclusive [inhibitor, partial curve]"
Cc1nc2c(-c3ccc(Cl)cc3)cnn2c2c1CCC2,–,"inconclusive [activator, single point]"
CC(=O)N1CCC2(CC1)CC(=O)c1cc(OCC(=O)N3CCOCC3)ccc1O2,–,"inconclusive [activator, single point]"
NCCc1nnc(SCc2c(F)cccc2Cl)o1,inconclusive: -16.6% [inhibitor],–
Cc1ccc(C)c(N2CCN(S(=O)(=O)c3ccc4[nH]c(=O)c(=O)[nH]c4c3)CC2)c1,–,inactive
COCCCNCCCCOc1c(Cl)cc(C)cc1Br,inconclusive: -15% [inhibitor],–
Cc1cccc(COCC(Cc2ccccc2)N2CCN(C(=O)c3cc(Cl)cc(Cl)c3)CCC2=O)c1 (stereo not drawn),–,"inconclusive [inhibitor, single point]"
Cc1cccc(C2=NN(c3ccc(Br)cc3)[C@@H](C(=O)N3CCOC3=O)[C@@H]2c2ccc(F)cc2)c1,–,"inconclusive [activator, partial curve]"
O=C(Nc1cccc(C(=O)O)c1)/C(=C\c1ccccc1)NC(=O)c1cccc2ccccc12,inconclusive: 18.6% [activator],–
CCOC(=O)C[N+](CC)(CC)CC#Cc1ccccc1,–,"inconclusive [inhibitor, single point]"
N/C(CN1CCCC1=O)=N\O,–,inactive
CCN1CCN(CCCNC(=O)C2CCCN(c3nnc(-n4cccc4)s3)C2)CC1 (stereo not drawn),inconclusive: 15.5% [activator],–
CCN(CC)c1ccc(/C=N/NC(=O)Cc2cccs2)cc1,–,"inconclusive [activator, partial curve]"
O=C(CCCN1C(=O)/C(=C/c2ccccc2Cl)SC1=S)NNC(=O)c1ccccc1,–,"inconclusive [inhibitor, single point]"
Cc1ccc(S(=O)(=O)N(Cc2ccc(Cl)cc2)c2ccccc2C(=O)NCc2ccco2)cc1,–,"inconclusive [inhibitor, single point]"
CC(C)Cc1ccc(C(C)C(=O)Nc2ncccn2)cc1 (stereo not drawn),inconclusive: 6.39% [activator],–
COc1ccc(OC)c(N=c2oc3cc(O)ccc3cc2C(N)=O)c1,–,"inconclusive [activator, single point]"
O=C(c1ccc2nc(-c3ccco3)c(-c3ccco3)nc2c1)N1CCN(c2ccccc2)CC1,–,"inconclusive [inhibitor, single point]"
